The supplement of paper PMC9174493
Some of the results follow. Single values of this set are uncertain. Values with irradiation are relative to irradiated vehicle.

The compounds below were run on A549-Dual (assay: NF-kB reporter (SEAP) activity, viability-corrected, relative to vehicle (fold change vs vehicle); higher = more activation of STING-IRF / NF-kB immune response reporter). Settings: 10 µM; irradiation: 8 Gy/4 fr.
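Note: viability correction based on the alamar blue assay, with concentrations leaving 10% survival or less dropped.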

| SMILES | NF-kB reporter |
| --- | --- |
| CC(=O)NC1C(OC2C(C(=O)O)OC(OC3C4COC(O4)C(NS(=O)(=O)O)C3O)C(O)C2O)OC(CO)C(OC2CC(C(=O)O)C(OC3OC(COS(=O)(=O)O)C(OC4OC(C(=O)O)=CC(O)C4O)C(O)C3NC(C)=O)C(O)C2O)C1C (configuration not stated) [Enoxaparin sodium] | 0.787 |
| COc1cc(O)c(C(=O)Nc2nc(C(=O)NCCN(C(C)C)C(C)C)cs2)cc1OC.Cl.O.O.O [Acotiamide hydrochloride] | 1.06 |
| CS(=O)(=O)c1ccc(C(O)C(CF)NC(=O)C(Cl)Cl)cc1 (configuration not stated) [Florfenicol] | 0.553 |
| N=C(N)NCCCC(N)C(=O)O (racemic) [DL-Arginine] | 2.41 |
| CCCN1CC(C)C(O)C(C)(O)C(CC)OC(=O)C(C)C(OC2CC(C)(OC)C(O)C(C)O2)C(C)C(OC2OC(C)CC(N(C)C)C2O)C(C)(O)CC1C (configuration not stated) [Gamithromycin] | 0.481 |
| CC(=O)OC(C)C[N+](C)(C)C.[Cl-] (configuration not stated) [Methacholine chloride] | 0.776 |
| CC(C)(C)C(O)/C=C/c1ccc2c(c1)OCO2 (configuration not stated) [Stiripentol] | 1.01 |
| [OH][Al]([OH])[OH] [Aluminium hydroxide] | 1.37 |
| COc1cc2c(cc1OC)-c1cc3ccc(OC)c(OC)c3c[n+]1CC2 [Palmatine] | 0.637 |
| Cl.c1ccc(CC2=NCCN2)cc1 [Tolazoline HCl] | 0.872 |
| C#CCNC1CCc2ccccc21.CS(=O)(=O)O (configuration not stated) [Rasagiline Mesylate] | 0.717 |
| Cl.N=C(N/N=C/c1ccc(Cl)cc1)N/N=C/c1ccc(Cl)cc1 [Robenidine Hydrochoride] | 0.813 |
